Reference: the supplement of paper PMC8728848
The other results are listed elsewhere or left out.

Tests used:
Experiment in all cases: glycan array binding signal (z-score within array); higher = stronger binding
Conditions in all cases: glycan notation: IUPAC condensed, linker removed
[1] = molecular target: Fuc(a1-2)[Gal(a1-3)]Gal(b1-3)GlcNAc(b1-3)GalNAc
Method in brief: (§1)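 Glycan array data came from 3228 arrays in the Consortium for Functional Glycomics database, and only arrays with an available protein sequence were kept. Glycan names were put into IUPAC-condensed notation, and columns mapping to the same glycan were averaged. The binding signal is a within-array Z-score, averaged across arrays of one protein sequence run at different concentrations or buffers and across linkers. A negative Z-score can be read as non-binding.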

[2] = molecular target: Fuc(a1-2)[Gal(a1-3)]Gal(b1-3)GlcNAc(b1-6)GalNAc
Method in brief: as §1

[3] = molecular target: Fuc(a1-2)[Gal(a1-3)]Gal(b1-4)Glc
Method in brief: as §1

[4] = molecular target: Fuc(a1-2)[Gal(a1-3)]Gal(b1-4)GlcNAc
Method in brief: as §1

[5] = molecular target: Fuc(a1-2)[Gal(a1-3)]Gal(b1-4)GlcNAc(b1-2)Man
Method in brief: as §1

[6] = molecular target: Fuc(a1-2)[Gal(a1-3)]Gal(b1-4)GlcNAc(b1-2)Man(a1-3)[Fuc(a1-2)[Gal(a1-3)]Gal(b1-4)GlcNAc(b1-2)Man(a1-6)]Man(b1-4)GlcNAc(b1-4)GlcNAc
Method in brief: as §1

[7] = molecular target: Fuc(a1-2)[Gal(a1-3)]Gal(b1-4)GlcNAc(b1-2)Man(a1-3)[Fuc(a1-2)[Gal(a1-3)]Gal(b1-4)GlcNAc(b1-2)Man(a1-6)]Man(b1-4)GlcNAc(b1-4)[Fuc(a1-6)]GlcNAc
Method in brief: as §1

[8] = molecular target: Fuc(a1-2)[Gal(a1-3)]Gal(b1-4)GlcNAc(b1-3)GalNAc
Method in brief: as §1

[9] = molecular target: Fuc(a1-2)[Gal(a1-3)]Gal(b1-4)GlcNAc(b1-6)GalNAc
Method in brief: as §1

[10] = molecular target: Fuc(a1-2)[Gal(a1-3)]Gal(b1-4)[Fuc(a1-3)]Glc
Method in brief: as §1

[11] = molecular target: Fuc(a1-2)[Gal(a1-3)]Gal(b1-4)[Fuc(a1-3)]GlcNAc
Method in brief: as §1

[12] = molecular target: Fuc(a1-2)[Gal(a1-3)]Gal(b1-4)[Fuc(a1-3)]GlcNAc(b1-3)GalNAc
Method in brief: as §1

[13] = molecular target: Fuc(a1-2)[Gal(a1-4)]Gal(b1-4)GalNAc
Method in brief: as §1

[14] = molecular target: Fuc(a1-2)[Gal(a1-4)]Gal(b1-4)GlcNAc
Method in brief: as §1

[15] = molecular target: Fuc(a1-2)[GalNAc(a1-3)]Gal
Method in brief: as §1

[16] = molecular target: Fuc(a1-2)[GalNAc(a1-3)]Gal(b1-3)GalNAc(a1-3)[Fuc(a1-2)]Gal(b1-4)GlcNAc
Method in brief: as §1

[17] = molecular target: Fuc(a1-2)[GalNAc(a1-3)]Gal(b1-3)GalNAc(b1-3)Gal(a1-4)Gal(b1-4)Glc
Method in brief: as §1

[18] = molecular target: Fuc(a1-2)[GalNAc(a1-3)]Gal(b1-3)GlcNAc
Method in brief: as §1

[19] = molecular target: Fuc(a1-2)[GalNAc(a1-3)]Gal(b1-3)GlcNAc(b1-2)Man(a1-3)[Fuc(a1-2)[GalNAc(a1-3)]Gal(b1-3)GlcNAc(b1-2)Man(a1-6)]Man(b1-4)GlcNAc(b1-4)GlcNAc
Method in brief: as §1

[20] = molecular target: Fuc(a1-2)[GalNAc(a1-3)]Gal(b1-3)GlcNAc(b1-2)Man(a1-3)[Fuc(a1-2)[GalNAc(a1-3)]Gal(b1-3)GlcNAc(b1-2)Man(a1-6)]Man(b1-4)GlcNAc(b1-4)[Fuc(a1-6)]GlcNAc
Method in brief: as §1

[21] = molecular target: Fuc(a1-2)[GalNAc(a1-3)]Gal(b1-3)GlcNAc(b1-3)GalNAc
Method in brief: as §1

[22] = molecular target: Fuc(a1-2)[GalNAc(a1-3)]Gal(b1-3)GlcNAc(b1-6)GalNAc
Method in brief: as §1

[23] = molecular target: Fuc(a1-2)[GalNAc(a1-3)]Gal(b1-4)Glc
Method in brief: as §1

[24] = molecular target: Fuc(a1-2)[GalNAc(a1-3)]Gal(b1-4)GlcNAc
Method in brief: as §1

[25] = molecular target: Fuc(a1-2)[GalNAc(a1-3)]Gal(b1-4)GlcNAc(b1-2)Man
Method in brief: as §1

[26] = molecular target: Fuc(a1-2)[GalNAc(a1-3)]Gal(b1-4)GlcNAc(b1-2)Man(a1-3)[Fuc(a1-2)[GalNAc(a1-3)]Gal(b1-4)GlcNAc(b1-2)Man(a1-6)]Man(b1-4)GlcNAc(b1-4)GlcNAc
Method in brief: as §1

[27] = molecular target: Fuc(a1-2)[GalNAc(a1-3)]Gal(b1-4)GlcNAc(b1-2)Man(a1-3)[Fuc(a1-2)[GalNAc(a1-3)]Gal(b1-4)GlcNAc(b1-2)Man(a1-6)]Man(b1-4)GlcNAc(b1-4)[Fuc(a1-6)]GlcNAc
Method in brief: as §1

[28] = molecular target: Fuc(a1-2)[GalNAc(a1-3)]Gal(b1-4)GlcNAc(b1-3)Gal(b1-4)GlcNAc
Method in brief: as §1

[29] = molecular target: Fuc(a1-2)[GalNAc(a1-3)]Gal(b1-4)GlcNAc(b1-3)Gal(b1-4)GlcNAc(b1-3)Gal(b1-4)GlcNAc
Method in brief: as §1

[30] = molecular target: Fuc(a1-2)[GalNAc(a1-3)]Gal(b1-4)GlcNAc(b1-3)GalNAc
Method in brief: as §1

[31] = molecular target: Fuc(a1-2)[GalNAc(a1-3)]Gal(b1-4)GlcNAc(b1-3)[Fuc(a1-2)[GalNAc(a1-3)]Gal(b1-4)GlcNAc(b1-6)]GalNAc
Method in brief: as §1

[32] = molecular target: Fuc(a1-2)[GalNAc(a1-3)]Gal(b1-4)GlcNAc(b1-6)GalNAc
Method in brief: as §1

[33] = molecular target: Fuc(a1-2)[GalNAc(a1-3)]Gal(b1-4)[Fuc(a1-3)]GlcNAc
Method in brief: as §1

[34] = molecular target: Fuc(a1-2)[GalNAc(a1-3)]Gal(b1-4)[Fuc(a1-3)]GlcNAc(b1-3)GalNAc
Method in brief: as §1

[35] = molecular target: Fuc(a1-2)[GalNAc(a1-4)]Gal(b1-4)GlcNAc
Method in brief: as §1

[36] = molecular target: Fuc(a1-2)[GalNAc(b1-3)]Gal
Method in brief: as §1

[37] = molecular target: Fuc(a1-3)GlcNAc
Method in brief: as §1

[38] = molecular target: Fuc(a1-3)[Gal(b1-4)]Glc6S
Method in brief: as §1

[39] = molecular target: Fuc(a1-3)[Gal(b1-4)]GlcNAc
Method in brief: as §1

[40] = molecular target: Fuc(a1-3)[Gal(b1-4)]GlcNAc(b1-2)Man
Method in brief: as §1

[41] = molecular target: Fuc(a1-3)[Gal(b1-4)]GlcNAc(b1-2)Man(a1-3)[Fuc(a1-3)[Gal(b1-4)]GlcNAc(b1-2)Man(a1-6)]Man(b1-4)GlcNAc(b1-4)GlcNAc
Method in brief: as §1

[42] = molecular target: Fuc(a1-3)[Gal(b1-4)]GlcNAc(b1-2)Man(a1-3)[Fuc(a1-3)[Gal(b1-4)]GlcNAc(b1-2)Man(a1-6)]Man(b1-4)GlcNAc(b1-4)[Fuc(a1-6)]GlcNAc
Method in brief: as §1

[43] = molecular target: Fuc(a1-3)[Gal(b1-4)]GlcNAc(b1-3)Gal(b1-3)[Fuc(a1-4)]GlcNAc
Method in brief: as §1

[44] = molecular target: Fuc(a1-3)[Gal(b1-4)]GlcNAc(b1-3)Gal(b1-4)[Fuc(a1-3)]GlcNAc
Method in brief: as §1

[45] = molecular target: Fuc(a1-3)[Gal(b1-4)]GlcNAc(b1-3)Gal(b1-4)[Fuc(a1-3)]GlcNAc(b1-3)Gal(b1-4)[Fuc(a1-3)]GlcNAc
Method in brief: as §1

[46] = molecular target: Fuc(a1-3)[Gal(b1-4)]GlcNAc(b1-3)GalNAc
Method in brief: as §1

[47] = molecular target: Fuc(a1-3)[Gal(b1-4)]GlcNAc(b1-4)Gal(b1-4)[Fuc(a1-3)]GlcNAc
Method in brief: as §1

[48] = molecular target: Fuc(a1-3)[Gal(b1-4)]GlcNAc(b1-4)Gal(b1-4)[Fuc(a1-3)]GlcNAc(b1-4)Gal(b1-4)[Fuc(a1-3)]GlcNAc
Method in brief: as §1

[49] = molecular target: Fuc(a1-3)[Gal(b1-4)]GlcNAc(b1-6)GalNAc
Method in brief: as §1

[50] = molecular target: Fuc(a1-3)[Gal(b1-4)]GlcNAc(b1-6)[Gal(b1-3)GlcNAc(b1-3)]Gal(b1-4)Glc
Method in brief: as §1

[51] = molecular target: Fuc(a1-3)[Gal(b1-4)]GlcNAc6S
Method in brief: as §1

[52] = molecular target: Fuc(a1-3)[Gal3S(b1-4)]Glc
Method in brief: as §1

[53] = molecular target: Fuc(a1-3)[Gal3S(b1-4)]Glc6S
Method in brief: as §1

[54] = molecular target: Fuc(a1-3)[Gal3S(b1-4)]GlcNAc
Method in brief: as §1

[55] = molecular target: Fuc(a1-3)[Gal3S(b1-4)]GlcNAc6S
Method in brief: as §1

[56] = molecular target: Fuc(a1-3)[GalNAc(b1-4)]Gal(b1-4)GlcNAc
Method in brief: as §1

[57] = molecular target: Fuc(a1-3)[GalNAc(b1-4)]GlcNAc
Method in brief: as §1

[58] = molecular target: Fuc(a1-3)[GalNAc(b1-4)]GlcNAc6S
Method in brief: as §1

[59] = molecular target: Fuc(a1-4)GlcNAc
Method in brief: as §1

[60] = molecular target: Fuc(b1-3)GlcNAc
Method in brief: as §1

B1: UEA-I (Ulex europaeus), P22972 (protein)
chain: SDDLSFKFKNFSQNGKDLSFQGDASVIETGVLQLNKVGNNLPDETGGIARYIAPIHIWNCNTGEVASFITSFSFFMETSANPKAATDGLTFFLAPPDSPLRRAGGYFGLFEDTKDNDSSYQTVAVEFDTIGSPVNFDDPGFPHIGIDVNRVKSINAERWNKRYGLNNVANVEIIYEASSKTLTASLTYPSDQTSISVTSIVDLKEILPEWVSVGFSGGTYIGRQATHEVLNWYFTSNLINTNS
glycan array binding signal (z-score) [1]: -0.244 | glycan array binding signal (z-score) [2]: -0.213 | glycan array binding signal (z-score) [3]: -0.176 | glycan array binding signal (z-score) [4]: -0.205 | glycan array binding signal (z-score) [5]: -0.199 | glycan array binding signal (z-score) [6]: -0.194 | glycan array binding signal (z-score) [7]: -0.143 | glycan array binding signal (z-score) [8]: -0.148 | glycan array binding signal (z-score) [9]: -0.21 | glycan array binding signal (z-score) [10]: -0.07 | glycan array binding signal (z-score) [11]: -0.09 | glycan array binding signal (z-score) [12]: -0.022 | glycan array binding signal (z-score) [13]: 5.51 | glycan array binding signal (z-score) [14]: 5.58 | glycan array binding signal (z-score) [15]: -0.22 | glycan array binding signal (z-score) [16]: -0.245 | glycan array binding signal (z-score) [17]: -0.224 | glycan array binding signal (z-score) [18]: -0.188 | glycan array binding signal (z-score) [19]: -0.158 | glycan array binding signal (z-score) [20]: -0.21 | glycan array binding signal (z-score) [21]: 0.107 | glycan array binding signal (z-score) [22]: -0.233 | glycan array binding signal (z-score) [23]: -0.165 | glycan array binding signal (z-score) [24]: -0.201 | glycan array binding signal (z-score) [25]: -0.207 | glycan array binding signal (z-score) [26]: -0.197 | glycan array binding signal (z-score) [27]: -0.013 | glycan array binding signal (z-score) [28]: -0.19 | glycan array binding signal (z-score) [29]: 0.04 | glycan array binding signal (z-score) [30]: -0.117 | glycan array binding signal (z-score) [31]: -0.178 | glycan array binding signal (z-score) [32]: -0.233 | glycan array binding signal (z-score) [33]: -0.164 | glycan array binding signal (z-score) [34]: 0.061 | glycan array binding signal (z-score) [35]: 5.17 | glycan array binding signal (z-score) [36]: -0.226 | glycan array binding signal (z-score) [37]: 0.94 | glycan array binding signal (z-score) [38]: -0.109 | glycan array binding signal (z-score) [39]: -0.142 | glycan array binding signal (z-score) [40]: -0.206 | glycan array binding signal (z-score) [41]: -0.178 | glycan array binding signal (z-score) [42]: -0.026 | glycan array binding signal (z-score) [43]: -0.111 | glycan array binding signal (z-score) [44]: -0.193 | glycan array binding signal (z-score) [45]: -0.194 | glycan array binding signal (z-score) [46]: -0.097 | glycan array binding signal (z-score) [47]: -0.197 | glycan array binding signal (z-score) [48]: -0.196 | glycan array binding signal (z-score) [49]: 0.149 | glycan array binding signal (z-score) [50]: -0.103 | glycan array binding signal (z-score) [51]: -0.083 | glycan array binding signal (z-score) [52]: -0.137 | glycan array binding signal (z-score) [53]: 0.641 | glycan array binding signal (z-score) [54]: -0.141 | glycan array binding signal (z-score) [55]: -0.108 | glycan array binding signal (z-score) [56]: -0.554 | glycan array binding signal (z-score) [57]: -0.159 | glycan array binding signal (z-score) [58]: -0.217 | glycan array binding signal (z-score) [59]: 0.791 | glycan array binding signal (z-score) [60]: -0.212
